# The other results are listed elsewhere or left out.
# B1: AT5G01260(PC)(40) (Arabidopsis thaliana), Q9LFB0 (protein)
# chain: MIGIGRTLTSSSPSKIILEDLPPGIYRYGTEIFTSVPRKTFHHIKFLRLDSAQSSRILKPVPLRSSSIKDSQVNVEDEEIEASNKTVRVRFQLRKECVFGEHFFIVGDDPVFGGLWDPETALPLNWSDGNVWTVDLDLPVGRLVEFKLLLKAQTGEILWQPGPNRALETWETNKTIRICEDWDNADLQMMIEEDFVPYTNISSIGSEDEDEVLGSVQQNSSVVAVENAGYVSDESAQNSSFSIQSEKTMEPSNGALTAREVIKEAMFTEEESPVLVPGLIPLSDLDNEQVEVINEGKAETFPEVDKKQEPKAERNKKAKVKAISLFEKSEQEAVKSVEQRQYNAVEEEQQRLETEPLGTPDVLFENDIQWGRRTLYKLLSNFRLF
# Tests used:
# Experiment in all cases: glycan array binding signal (z-score within array); higher = stronger binding
# Settings in all cases: glycan notation: IUPAC condensed, linker removed
# [1] = biological target: Fuc(a1-2)[GalNAc(a1-3)]Gal(b1-3)GlcNAc(b1-3)GalNAc
# Method in brief: (§1)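 Glycan array binding is given as a within-array Z-score, which can be read as non-binding when negative. The arrays, 3228 of them, came from the Consortium for Functional Glycomics database and were retained only where the protein sequence was available. Z-scores were averaged across arrays of the same protein sequence at different concentrations or buffers and across linkers.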
# [2] = biological target: Fuc(a1-2)[GalNAc(a1-3)]Gal(b1-3)GlcNAc(b1-6)GalNAc
# Method in brief: as §1
# [3] = biological target: Fuc(a1-2)[GalNAc(a1-3)]Gal(b1-4)Glc
# Method in brief: as §1
# [4] = biological target: Fuc(a1-2)[GalNAc(a1-3)]Gal(b1-4)GlcNAc
# Method in brief: as §1
# [5] = biological target: Fuc(a1-2)[GalNAc(a1-3)]Gal(b1-4)GlcNAc(b1-2)Man
# Method in brief: as §1
# [6] = biological target: Fuc(a1-2)[GalNAc(a1-3)]Gal(b1-4)GlcNAc(b1-2)Man(a1-3)[Fuc(a1-2)[GalNAc(a1-3)]Gal(b1-4)GlcNAc(b1-2)Man(a1-6)]Man(b1-4)GlcNAc(b1-4)GlcNAc
# Method in brief: as §1
# [7] = biological target: Fuc(a1-2)[GalNAc(a1-3)]Gal(b1-4)GlcNAc(b1-2)Man(a1-3)[Fuc(a1-2)[GalNAc(a1-3)]Gal(b1-4)GlcNAc(b1-2)Man(a1-6)]Man(b1-4)GlcNAc(b1-4)[Fuc(a1-6)]GlcNAc
# Method in brief: as §1
# [8] = biological target: Fuc(a1-2)[GalNAc(a1-3)]Gal(b1-4)GlcNAc(b1-3)Gal(b1-4)GlcNAc
# Method in brief: as §1
# [9] = biological target: Fuc(a1-2)[GalNAc(a1-3)]Gal(b1-4)GlcNAc(b1-3)Gal(b1-4)GlcNAc(b1-3)Gal(b1-4)GlcNAc
# Method in brief: as §1
# [10] = biological target: Fuc(a1-2)[GalNAc(a1-3)]Gal(b1-4)GlcNAc(b1-3)GalNAc
# Method in brief: as §1
# [11] = biological target: Fuc(a1-2)[GalNAc(a1-3)]Gal(b1-4)GlcNAc(b1-3)[Fuc(a1-2)[GalNAc(a1-3)]Gal(b1-4)GlcNAc(b1-6)]GalNAc
# Method in brief: as §1
# [12] = biological target: Fuc(a1-2)[GalNAc(a1-3)]Gal(b1-4)GlcNAc(b1-6)GalNAc
# Method in brief: as §1
# [13] = biological target: Fuc(a1-2)[GalNAc(a1-3)]Gal(b1-4)[Fuc(a1-3)]GlcNAc
# Method in brief: as §1
# [14] = biological target: Fuc(a1-2)[GalNAc(a1-3)]Gal(b1-4)[Fuc(a1-3)]GlcNAc(b1-3)GalNAc
# Method in brief: as §1
# [15] = biological target: Fuc(a1-2)[GalNAc(a1-4)]Gal(b1-4)GlcNAc
# Method in brief: as §1
# [16] = biological target: Fuc(a1-2)[GalNAc(b1-3)]Gal
# Method in brief: as §1
# [17] = biological target: Fuc(a1-3)GlcNAc
# Method in brief: as §1
# [18] = biological target: Fuc(a1-3)[Gal(b1-4)]Glc6S
# Method in brief: as §1
# [19] = biological target: Fuc(a1-3)[Gal(b1-4)]GlcNAc
# Method in brief: as §1
# [20] = biological target: Fuc(a1-3)[Gal(b1-4)]GlcNAc(b1-2)Man
# Method in brief: as §1
# [21] = biological target: Fuc(a1-3)[Gal(b1-4)]GlcNAc(b1-2)Man(a1-3)[Fuc(a1-3)[Gal(b1-4)]GlcNAc(b1-2)Man(a1-6)]Man(b1-4)GlcNAc(b1-4)GlcNAc
# Method in brief: as §1
# [22] = biological target: Fuc(a1-3)[Gal(b1-4)]GlcNAc(b1-2)Man(a1-3)[Fuc(a1-3)[Gal(b1-4)]GlcNAc(b1-2)Man(a1-6)]Man(b1-4)GlcNAc(b1-4)[Fuc(a1-6)]GlcNAc
# Method in brief: as §1
# [23] = biological target: Fuc(a1-3)[Gal(b1-4)]GlcNAc(b1-3)Gal(b1-3)[Fuc(a1-4)]GlcNAc
# Method in brief: as §1
# [24] = biological target: Fuc(a1-3)[Gal(b1-4)]GlcNAc(b1-3)Gal(b1-4)[Fuc(a1-3)]GlcNAc
# Method in brief: as §1
# [25] = biological target: Fuc(a1-3)[Gal(b1-4)]GlcNAc(b1-3)Gal(b1-4)[Fuc(a1-3)]GlcNAc(b1-3)Gal(b1-4)[Fuc(a1-3)]GlcNAc
# Method in brief: as §1
# [26] = biological target: Fuc(a1-3)[Gal(b1-4)]GlcNAc(b1-3)GalNAc
# Method in brief: as §1
# [27] = biological target: Fuc(a1-3)[Gal(b1-4)]GlcNAc(b1-6)GalNAc
# Method in brief: as §1
# [28] = biological target: Fuc(a1-3)[Gal(b1-4)]GlcNAc(b1-6)[Gal(b1-3)GlcNAc(b1-3)]Gal(b1-4)Glc
# Method in brief: as §1
# [29] = biological target: Fuc(a1-3)[Gal(b1-4)]GlcNAc6S
# Method in brief: as §1
# [30] = biological target: Fuc(a1-3)[Gal3S(b1-4)]Glc
# Method in brief: as §1
# [31] = biological target: Fuc(a1-3)[Gal3S(b1-4)]GlcNAc
# Method in brief: as §1
# [32] = biological target: Fuc(a1-3)[Gal3S(b1-4)]GlcNAc6S
# Method in brief: as §1
# [33] = biological target: Fuc(a1-3)[GalNAc(b1-4)]GlcNAc
# Method in brief: as §1
# [34] = biological target: Fuc(a1-3)[GalNAc(b1-4)]GlcNAc6S
# Method in brief: as §1
# [35] = biological target: Fuc(a1-4)GlcNAc
# Method in brief: as §1
# [36] = biological target: Fuc(b1-3)GlcNAc
# Method in brief: as §1
# [37] = biological target: Gal(a1-2)Gal
# Method in brief: as §1
binder,measurement,setting,value
B1,glycan array binding signal (z-score),[1],-0.059
same,glycan array binding signal (z-score),[2],-0.243
same,glycan array binding signal (z-score),[3],-0.528
same,glycan array binding signal (z-score),[4],-0.274
same,glycan array binding signal (z-score),[5],-0.605
same,glycan array binding signal (z-score),[6],-0.648
same,glycan array binding signal (z-score),[7],0.423
same,glycan array binding signal (z-score),[8],-0.529
same,glycan array binding signal (z-score),[9],0.105
same,glycan array binding signal (z-score),[10],-0.201
same,glycan array binding signal (z-score),[11],-0.227
same,glycan array binding signal (z-score),[12],-0.387
same,glycan array binding signal (z-score),[13],-0.127
same,glycan array binding signal (z-score),[14],7.04
same,glycan array binding signal (z-score),[15],-0.092
same,glycan array binding signal (z-score),[16],0.612
same,glycan array binding signal (z-score),[17],-0.163
same,glycan array binding signal (z-score),[18],-0.156
same,glycan array binding signal (z-score),[19],0.135
same,glycan array binding signal (z-score),[20],-0.312
same,glycan array binding signal (z-score),[21],-0.356
same,glycan array binding signal (z-score),[22],0.084
same,glycan array binding signal (z-score),[23],0.431
same,glycan array binding signal (z-score),[24],-0.975
same,glycan array binding signal (z-score),[25],1.89
same,glycan array binding signal (z-score),[26],-0.886
same,glycan array binding signal (z-score),[27],-0.158
same,glycan array binding signal (z-score),[28],0.008
same,glycan array binding signal (z-score),[29],-0.251
same,glycan array binding signal (z-score),[30],0.133
same,glycan array binding signal (z-score),[31],-0.031
same,glycan array binding signal (z-score),[32],-0.043
same,glycan array binding signal (z-score),[33],1.78
same,glycan array binding signal (z-score),[34],-0.487
same,glycan array binding signal (z-score),[35],0.262
same,glycan array binding signal (z-score),[36],-0.73
same,glycan array binding signal (z-score),[37],-0.201

# Reference: the supplement of paper PMC8728848
